Laboratory results as given in the supplement of paper PMC7826260.
The other results are listed elsewhere or left out. Each Rep nickase domain was tested in vitro on the same pool of single strands (3 µM enzyme, 1 h, 37 °C); shown is the middle of each 90-letter strand. Uncut reads are compared with the no-enzyme pool on a log2 scale; strong cutting gives strongly negative numbers. There is no active / inactive call. The scaling is to total reads, so uncut sequences can rise above 0 when many others are cut.

Experiments:
Experiment in all cases: uncleaved DNA left, log2 of reads against the no-enzyme library (log2 ratio); higher = less cleavage (more negative = more Rep cleavage of the k-mer); sequences stand for … in CTCGTCCG…ACCGGAGA
[1] = test system: T1, Rep nickase domain of Muscovy duck circovirus
T1 sequence (residues 1-111 of Rep, tag left off): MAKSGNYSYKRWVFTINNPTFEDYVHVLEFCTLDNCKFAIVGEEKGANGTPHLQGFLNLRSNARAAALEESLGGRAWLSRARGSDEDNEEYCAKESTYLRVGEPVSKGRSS
Method: (§1)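 A pool of 90-nt single-stranded DNAs with seven random bases just before the constant AC of the nick site (name = the seven bases) was cut by 3 µM recombinant His6-SUMO-tagged Rep nickase domain (300 nM DNA, 50 mM HEPES pH 8.0, 50 mM NaCl, 1 mM MnCl2, 1 h, 37 °C, three replicates). Uncut DNA was amplified and sequenced.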

[2] = test system: T2, Rep nickase domain of banana bunchy top virus
T2 sequence (residues 1-94 of Rep, tag left off): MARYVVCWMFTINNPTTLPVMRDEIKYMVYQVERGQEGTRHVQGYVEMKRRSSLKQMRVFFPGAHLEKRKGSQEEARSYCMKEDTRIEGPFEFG
Method: as §1

[3] = test system: T3, Rep nickase domain of cabbage leaf curl virus
T3 sequence (residues 1-116 of Rep, tag left off): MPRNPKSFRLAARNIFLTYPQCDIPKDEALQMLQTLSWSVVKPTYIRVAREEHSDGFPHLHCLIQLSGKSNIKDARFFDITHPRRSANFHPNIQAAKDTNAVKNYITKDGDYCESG
Method: as §1

[4] = test system: T4, Rep nickase domain of chickpea chlorotic dwarf virus
T4 sequence (residues 1-124 of Rep, tag left off): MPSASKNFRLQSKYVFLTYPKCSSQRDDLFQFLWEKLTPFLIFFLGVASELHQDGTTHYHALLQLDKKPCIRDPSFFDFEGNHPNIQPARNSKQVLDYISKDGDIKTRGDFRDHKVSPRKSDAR
Method: as §1

[5] = test system: T5, Rep nickase domain of faba bean necrotic yellows virus
T5 sequence (residues 1-98 of Rep, tag left off): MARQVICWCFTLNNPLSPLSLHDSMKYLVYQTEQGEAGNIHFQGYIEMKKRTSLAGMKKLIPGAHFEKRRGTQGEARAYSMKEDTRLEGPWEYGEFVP
Method: as §1

[6] = test system: T6, Rep nickase domain of maize striate mosaic virus
T6 sequence (residues 1-117 of Rep, tag left off): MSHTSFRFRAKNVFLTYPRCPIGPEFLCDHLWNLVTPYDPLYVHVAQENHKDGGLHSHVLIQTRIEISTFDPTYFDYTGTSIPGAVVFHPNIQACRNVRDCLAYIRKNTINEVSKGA
Method: as §1

[7] = test system: T7, Rep nickase domain of porcine circovirus 2
T7 sequence (residues 2-116 of Rep, tag left off): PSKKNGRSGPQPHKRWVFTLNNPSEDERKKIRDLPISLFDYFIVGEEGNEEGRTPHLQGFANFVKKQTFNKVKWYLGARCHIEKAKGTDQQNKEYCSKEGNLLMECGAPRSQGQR
Method: as §1

[8] = test system: T8, Rep nickase domain of tomato yellow leaf curl virus
T8 sequence (residues 1-136 of Rep, tag left off): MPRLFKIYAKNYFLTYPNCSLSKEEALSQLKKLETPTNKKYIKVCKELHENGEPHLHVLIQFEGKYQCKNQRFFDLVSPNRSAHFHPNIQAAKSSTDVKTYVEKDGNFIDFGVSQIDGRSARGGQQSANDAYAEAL
Method: as §1

[9] = test system: T9, Rep nickase domain of wheat dwarf virus
T9 sequence (residues 1-137 of Rep, tag left off): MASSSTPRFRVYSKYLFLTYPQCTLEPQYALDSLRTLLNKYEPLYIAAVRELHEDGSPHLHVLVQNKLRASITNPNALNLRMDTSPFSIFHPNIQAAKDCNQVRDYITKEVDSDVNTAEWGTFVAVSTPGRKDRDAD
Method: as §1

Sequence	uncleaved DNA left (log2) [1]	uncleaved DNA left (log2) [2]	uncleaved DNA left (log2) [3]	uncleaved DNA left (log2) [4]	uncleaved DNA left (log2) [5]	uncleaved DNA left (log2) [6]	uncleaved DNA left (log2) [7]	uncleaved DNA left (log2) [8]	uncleaved DNA left (log2) [9]
AGCATAA	-0.0884	-0.0297	-0.287	-0.147	-0.0514	-0.218	-0.498	-0.063	0.0115
CTTGCCG	0.0358	-0.0133	-0.783	-0.245	0.0291	-0.795	0.106	0.0271	-0.107
CATGAAT	0.0888	0.07	-0.0924	-0.887	-0.00303	-0.105	-0.26	-0.114	0.00944
TCCGGCT	0.0696	0.00604	0.035	-0.185	-0.0567	-0.138	0.0468	0.0299	-0.12
GTGCAAG	0.0397	0.0366	-0.36	-0.202	-0.00105	-0.736	0.178	0.062	-0.00423
GGTGCCC	-0.0996	-0.108	0.419	1.08	-0.068	1.58	-0.00411	-0.00982	0.0874
ATTCTAG	0.037	-0.0214	-0.745	-0.503	0.0325	-1.15	0.21	0.143	0.0315
CCAGAAC	-0.131	-0.00994	0.115	-0.347	0.057	-0.598	0.0939	-0.138	-0.0489
CAATGTC	0.0971	-0.165	-3.16	-2.66	-0.0394	-2.15	-0.0208	-0.0112	-0.74
CAGTTAA	0.0241	-0.0562	-0.29	-0.63	-0.0499	-0.702	-2.96	-0.132	-0.00394
CCATTTA	0.047	-0.074	-0.152	-1.34	-0.105	-1.04	0.046	0.123	-0.00449
GAGCAAG	0.0703	0.0948	-0.26	-0.0881	0.101	-0.432	0.0743	0.179	-0.0109
AAAGTCT	-0.00408	-0.0345	-1.31	-2.75	-0.024	-0.351	-0.365	-0.126	-0.285
GATGTGT	-0.000937	-0.0041	0.00962	-0.151	0.0633	-0.455	-0.0106	0.13	0.0701
GTTTTAA	-0.0784	0.095	0.292	0.79	-0.00268	1.78	0.133	0.115	0.00132
CTACAGC	-0.152	-0.119	-0.45	-1.2	-0.11	-0.949	-0.0108	-0.0639	0.00183
AAGCTGC	0.0779	-0.0395	0.383	1.6	-0.0144	1.64	0.189	-0.00443	0.168
AGCACAA	-0.103	0.102	0.186	0.564	0.000606	0.894	-0.00659	0.0989	0.0931
ACGACTA	0.0903	0.0536	-0.0382	0.292	0.0746	1.06	0.0298	-0.117	0.0339
TCTAACT	0.00841	-0.2	-0.444	-2.73	0.0216	-0.713	-0.696	-0.0161	-0.134
CTACCGA	0.00532	-0.0853	-0.327	-1.24	0.0528	-0.778	-0.057	0.041	-0.0925
GGTGCCT	-0.135	0.0488	0.534	1.2	0.0011	1.85	0.11	0.0512	-0.0359

Sequence	uncleaved DNA left (log2) [1]	uncleaved DNA left (log2) [2]	uncleaved DNA left (log2) [3]	uncleaved DNA left (log2) [4]	uncleaved DNA left (log2) [5]	uncleaved DNA left (log2) [6]	uncleaved DNA left (log2) [7]	uncleaved DNA left (log2) [8]	uncleaved DNA left (log2) [9]
TAAACCA	-0.124	0.0412	-1.82	-2.7	0.00242	-0.764	-0.515	0.0494	-0.813
CCACCCT	-0.201	-0.0498	-0.319	-2.35	-0.017	-0.509	-0.85	-0.0737	-0.216
GACGTGG	0.0203	-0.0199	0.185	0.373	0.0159	0.0482	0.155	-0.0215	0.00787
CTCTTGT	-0.383	-0.18	-0.421	-0.993	-0.00426	-0.99	-0.815	-0.143	-0.0844
GGTTGAT	-0.126	-0.0856	0.353	1.18	-0.139	1.73	-0.402	-0.0579	0.0604
CAACATA	-0.0743	-0.237	-0.36	-2.12	-0.135	-0.499	-0.231	-0.119	-0.19
CCACCGC	-0.0314	-0.0644	-0.509	-0.861	-0.149	-0.756	-0.00371	-0.192	-0.228
GACGTTG	0.0187	-0.0422	-0.0882	0.102	-0.179	-0.0426	0.0113	-0.234	-0.179
GAATTAC	0.0972	0.0363	-0.0772	-0.909	0.0984	0.53	-0.0275	0.158	0.0236
AGGATTC	0.0344	0.044	0.145	0.517	-0.16	0.167	0.026	-0.0591	0.075
TAGGCCT	-0.0171	-0.108	-0.243	-1.63	-0.00192	0.434	-2.73	0.143	0.0541
TCCAATA	-0.0534	-0.0662	-0.126	-1.39	-0.0711	-0.672	-0.0972	-0.077	0.015
GGTTACC	0.0657	0.101	0.394	0.695	0.047	1.68	-0.0497	0.133	0.0446
ACTCGTC	0.024	-0.206	-0.403	-0.398	-0.116	-0.891	0.0577	-0.219	-0.141
ACATCCA	-0.051	0.0851	-0.0742	-0.961	0.0513	-0.314	0.0213	0.0205	-0.015
CACGGTC	-0.126	-0.194	-0.0541	0.0582	-0.0765	-0.44	-0.028	-0.0912	-0.148
GGTGACA	0.0207	0.0159	0.866	2.03	-0.0462	2.29	0.151	0.031	0.146
GTACACA	-0.00293	0.139	0.472	0.832	-0.00428	1.57	0.172	0.0903	0.295
CACCCAG	0.132	0.0395	-0.71	-0.371	0.059	-0.978	-0.26	0.0893	0.0148
CGTGCAT	-0.136	-0.111	-0.0698	0.325	-0.126	-0.0833	-0.157	-0.103	-0.0866
TGCAGCG	-0.0689	-0.00261	-0.861	0.264	0.0976	-0.795	0.0802	-0.0636	-0.12
CTGGTCC	-0.045	0.0241	0.208	0.00865	-0.118	0.0371	0.128	0.028	0.127

Sequence	uncleaved DNA left (log2) [1]	uncleaved DNA left (log2) [2]	uncleaved DNA left (log2) [3]	uncleaved DNA left (log2) [4]	uncleaved DNA left (log2) [5]	uncleaved DNA left (log2) [6]	uncleaved DNA left (log2) [7]	uncleaved DNA left (log2) [8]	uncleaved DNA left (log2) [9]
TTAAGCC	-0.0424	-0.107	-3.14	-2.9	0.00622	-2.38	-0.0409	-0.154	-1.58
TACCTGA	-0.0182	-0.0654	-0.0352	-0.775	-0.0648	0.0513	-0.368	-0.039	-0.0453
ATGAACA	0.122	0.0985	-0.13	-1.71	0.0324	-0.526	-0.0633	0.0715	-0.0112
CGCTGGA	0.0291	0.00458	-0.0658	0.213	-0.0373	0.395	0.0277	-0.205	0.0213
TTCGTTG	-0.105	-0.141	-0.404	-0.678	0.0193	-0.936	0.00188	-0.056	-0.107
GCATCGG	0.0597	0.0833	0.598	1.43	0.106	1.67	0.188	-0.0013	0.137
AAGAAAG	0.137	0.0864	-0.497	-0.271	0.193	-0.928	0.263	0.123	-0.0288
TTCTTGT	-0.498	-0.276	-0.24	-0.843	-0.171	-1.1	-1.02	-0.168	-0.21
TGGCGTT	0.0587	-0.046	-0.064	-0.216	-0.0569	-0.353	-0.0315	0.0393	0.123
ACGGCTA	0.024	-0.0247	-0.149	-0.557	-0.168	-0.368	-0.0616	-0.174	-0.133
TGGGTTA	0.0665	0.0165	0.491	0.889	-0.0465	1.65	-0.0326	-0.0447	0.0181
TCGGGAA	0.126	0.0661	0.496	1.2	0.075	1.64	0.0123	-0.214	0.0138
GTTAGGC	0.0603	0.0348	0.388	0.883	0.0114	1.01	0.0698	0.0445	0.109
GTCCCCG	-0.0722	0.077	0.263	1.14	-0.0396	1.33	-0.0332	-0.0402	-0.0374
GGCACAC	-0.0431	-0.00402	0.671	1.61	-0.0481	2.08	0.0879	0.0458	0.138
CTCACCA	0.0662	0.0394	-0.131	-1.53	-0.0527	-0.47	-0.314	0.174	0.126
GTACGGC	0.0486	0.00419	0.43	1	0.0481	1.46	0.0933	-0.0368	0.0714
ATCACAC	0.0868	0.0729	-0.0944	-0.344	0.0116	-0.836	0.0951	0.0343	0.0226
GCATGCG	-0.00544	-0.119	0.229	1.45	0.0397	1.57	0.127	0.00416	-0.0473
ACTTACA	-0.183	-0.106	-0.441	-2.43	0.0137	-0.8	-0.16	-0.19	0.00795
